Experimental data published in the supplement of paper PMC11417369.
The other results are listed elsewhere or left out.

Test system: PfAP2-HC AP2 domain (GST-tagged)
Assay: gcPBM binding intensity (ln(normalized median fluorescence intensity)); higher = stronger DNA binding
Outline: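 In this array assay, P. falciparum DNA-binding domains with a GST tag, expressed in E. coli, were applied for 1 h to primer-extended double-stranded 36-bp intergenic genomic probes and negative controls on an Agilent 4 × 180k array. Bound protein was visualised with Alexa488 anti-GST antibody at 488 nm. Binding intensity is the highest Masliner-normalised natural-log median intensity across replicate spots of either probe orientation.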

Sequence	gcPBM binding intensity (ln)
AAATTTTTTAATTTTTCTCATTTAATTTAAAAATTA [GTGCAC_negctrl_site155]	9.32
AAATTAAAGATAAAAGTGCAAAATTATAAATTTATT	9.81
TATGCTACATTATATGTACACACATATACATATATA [CACACA_site8199]	9.93
ATTTATACGTAATATGCATAAATATAAATATATATA [XGTACX_negctrl_site133]	9.69
TTAAAATTTTAAAAATTTTAATTTTACAAAAAAAAT [TGCATGCA_negctrl_site227]	9.29
TTTCTTTCTTTCTTTTTTTAAATATTTTTTAAAAAT [TGCATGCA_negctrl_site206]	9.38
ATATAAATAAAAAAAAAAAAAAAAAAAAAAAAAAAA [CACACA_negctrl_site972]	9.01
ATCATCTTTATTCAAGTGCACTGAAAATTTTTTATA [GTGCAC_site9801]	9.68
ATAATTATATGGCTAGCACACAATAAATAATTATAT [CACACA_site3815]	9.75
ATATAAGTGTATCTAACACACAAATATATAAAAATG [CACACA_site1956]	9.88
ACAAGTTAAAATATTACACACATATAAATATTTATA [CACACA_site7467]	9.74
AAGAAAAATATTCGTGTGCACAGAAGTATATGTGTG [GTGCAC_site9814]	10.3
TATTGTAAGAAAGGCACACAGATAAAATTATTATAT [CACACA_site2921]	9.87
TTTCGCTTTATTTATGCATGCAAATAAGTTGATATT [TGCATGCA_site724]	9.68
ATTTTTGTAAATACATGTACATATATATGCATATCC [XGTACX_site6353]	10.1
TACATATATACATACACACACATATAACCAATGTAG [CACACA_site2192]	10.4
AGTAATAGTTTGTGCACACTCAAGTATATCATAGAT [CACACA_site6082]	10.2
TGATATTATTATAAGGTGCTTAAAAATAAAGATAAT [GTGCAC_site9539]	9.58
AAAAAAAAAGATCACACACACATAAATATAAACAAA [CACACA_site5285]	10.9
AAAAAAAAAAAAAAAAAAAAAAAAAAAAGTTAAAAA [TGCATGCA_negctrl_site74]	9.09
AAAATTAAAATAGTAATACACACTTCATAGGAAATG [CACACA_site1762]	9.73
AACAAGAAATAATCACGTACACATTATAATAACTAA [XGTACX_site8184]	9.76

Sequence	gcPBM binding intensity (ln)
ATATAAAATAATAAGGGTACAGGTCTCTGCGATGTT [XGTACX_site786]	9.77
TAAAATATTGTTATTACATGCAACCTTATGAAAAAT [TGCATGCA_site706]	9.53
AGAATTTTAGATTTAGCACACATTTTTTTTTTTTTT [CACACA_site4081]	9.62
ACTCGCATATTTAAATGTACTTAATTAGAAGAAAAA [XGTACX_site3304]	9.44
ACTTTAATAATTCACTTATTTTCTTATTATATTATT [CACACA_negctrl_site556]	9.89
GGATTTATTTTATATACACACATACCTATATTTATA [CACACA_site7084]	9.9
TTTTTAACTAACATATCAATTCCATACGTCGTCAAA [CACACA_negctrl_site560]	9.51
AACTTGTGTGGATATTGTACTAACAATATGTATGAT [XGTACX_site6302]	9.94
AATAGTGTATAAATTTGTACATATAATTAAAAGGAA [XGTACX_site1143]	9.82
AATAACTTTTTGAGATGTACATTTTTAATTCGTAGA [XGTACX_site8455]	9.43
ATTCATAAAAAGAGGTGTACATTAATATAATATATA [XGTACX_site8283]	9.68
TTATTCGAACAAAGGAAAAAATATATTCAAAGGAAA [TGCATGCA_negctrl_site215]	9.48
AGGATATGCAGACACACACACATATAGATTTATATA [CACACA_site7100]	10.3
TCTATATAATACCAATGTACATAGTTTTAAGCATAA [XGTACX_site1889]	9.48
AAAACAAAAATATAAACACACATACATTGGTTTTCT [CACACA_site5405]	9.87
ATAAATTGTAAAATGTGTACGCAGATATTGCGTATT [XGTACX_site332]	9.75
ATAATATAAACATACACACACACATATATATATATA [CACACA_site5591]	10.8
TTTTGTCTTCAAATCAAATGTATATAAAAAAAATAC [CACACA_negctrl_site1717]	9.34
TTTAAAAATTTGATCAAACACACGTTGCATAAATTA [CACACA_site3945]	9.62
TTTTTTACTTTTGAGACATTTCATATTTTTATTCAC [GTGCAC_negctrl_site730]	9.71
TGATTGAGTAAAATGGGTACATATACACTATTACAT [XGTACX_site5232]	9.66
TACAGGAATATTTTTACACACTAAAAATTATAAAAT [CACACA_site1649]	9.66
